The subject of test [1] is normal RAW264.7 macrophage cells. Kind of test: Cellular proliferation assay. It is filed as cell-based. As to conditions: Mus musculus, average of three independent experiments ± SD. The source says:
(§1) We also tested AKE-72 against BCR-ABL-positive and BCR-ABL-negative cell lines.
(§2) 1.8. Cytochrome P450 Assay
(§3) The binding site was defined based

Test [2] relates to Ba/F3 cells expressing native BCR-ABL. Kind of test: Cellular proliferation assay. As to conditions: Mus musculus, BaF3, read-out: GI50 Ba/F3 (Bcr-Abl). The test is classed as cell-based.
Description: as §1, §2, §3

Regarding `CCN1CCN(Cc2ccc(NC(=O)c3cccc(C#Cc4cccc5[nH]nc(N)c45)c3)cc2C(F)(F)F)CC1` [Compound 5, 3-((3-amino-1H-indazol-4-yl)ethynyl)-N-(4-((4-ethylpiperazin-1-yl)methyl)-3-(trifluoromethyl)phenyl)benzamide], the GI50 in test [1] is 6.98 ± 0.402 µM; in test [2], 0.0096 ± 0.002 µM.

The molecule `Cc1ccc(C(=O)Nc2ccc(CN3CCN(C)CC3)c(C(F)(F)F)c2)cc1C#Cc1cnc2cccnn12` [Ponatinib, reference compound] registered a GI50 in test [1] of 2.88 ± 0.153 µM.
